In PubChem BioAssay AID504832 (National Center for Advancing Translational Sciences (NCATS), 2011):
Several values for one entry are separate records, joined by “and”; a condition that tells them apart may be missing. Equal entries are not always repeated. Screen size: about 310,000 compounds; about 18,000 (5.8%) were called active. Inconclusive means that the source gave no clear call. Such entries were picked first, then a sample of the others. The call rests on the fitted dose curve; in most records, active means well fitted inhibition curve with a large enough effect; inconclusive means small, poorly fitted or top-dose-only effect, or another doubt; inactive means no such curve, though single readings can be large or run the other way. Potencies beside an inconclusive call are fits to weak or partial responses and may not hold up.

Test: Primary qHTS for delayed death inhibitors of the malarial parasite plastid, 48 hour incubation
Conditions: P. falciparum luciferase growth in erythrocytes; series mostly up to 28.7 µM
Method in brief: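 Erythrocytes infected with P. falciparum carrying an integrated firefly luciferase reporter (2% hematocrit, 0.1% parasitemia final) were exposed to compounds in RPMI 1640 with 0.5% Albumax at 37 C, 5% CO2. Growth inhibition was scored as reduced luminescence.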
Potency means the concentration at half of the fitted maximal effect; tags describe the fitted curve by direction and shape.

SMILES	Potency
CCC(C)[C@H](NC(=O)OC(C)(C)C)C(=O)N/N=C/c1ccc2cc(OC)ccc2n1 (stereo partly drawn)	inconclusive: 13.1 µM [inhibitor, single point]
CC(=O)N1c2ccc(S(=O)(=O)N3CCCC3C(=O)NCc3ccccc3Cl)cc2CC1C (stereo not drawn)	inconclusive: 9.28 µM [inhibitor, single point]
CCN1CCN(c2nc(N)c([N+](=O)[O-])c(Nc3cccc(C)c3)n2)CC1	inactive
CCOc1ccc(S(=O)(=O)NCc2ccc(F)cc2)c2cccnc12	inactive
COc1cc2c(cc1NC(=O)c1cc(-c3ccncc3)nc3ccc(C)cc13)oc1ccccc12	inactive
COC(=O)c1ccc(S(=O)(=O)NCCSc2nnc3c4ccccc4n(C)c3n2)cc1	inconclusive: 13.1 µM [inhibitor, partial curve, poor fit]
Cn1c(CC(=O)Nc2ccccc2)nnc1SCC(=O)Nc1ccc(N2CCOCC2)cc1	inactive
CCOc1ccccc1NC(=O)c1ccccc1-c1nc(-c2ccccc2)no1	inconclusive: 18.5 µM [inhibitor, single point]
COc1cc2c(cc1OC)CN(c1ccc([N+](=O)[O-])cc1Cl)CC2	inconclusive: 18.5 µM [inhibitor, single point]
CCN(CC(=O)NCc1cccs1)C(=O)c1cccc(S(=O)(=O)Nc2ccccc2Cl)c1	inconclusive: 11.7 µM [inhibitor, single point]
O=C(NCc1ccccc1)C1=C[C@@H](c2coc3ccccc3c2=O)C[C@@H](OCc2ccc(CO)cc2)O1	inconclusive: 4.15 µM [inhibitor, partial curve]
N#Cc1c2n(c3c(=O)[nH]cnc13)CCCC2	inactive
O=C1/C(=C/c2ccccn2)SC(=S)N1NS(=O)(=O)c1ccccc1	inactive
CC(=O)c1cc2c(cc1NC(=O)c1ccco1)OCCO2	inactive
Cc1oc(-c2cccs2)nc1CN1CCN(Cc2ccc(F)c(F)c2)C(CCO)C1 (stereo not drawn)	inconclusive: 18.5 µM [inhibitor, single point]
COCCn1c(=S)[nH]c2cc(C(=O)N3CCN(c4ccc(F)cc4)CC3)ccc2c1=O	inactive
CCN(Cc1ccc(O)cc1)CC1CCCN(CCc2cccc(F)c2)C1 (stereo not drawn)	active: 2.33 µM
Cc1cc(C)cc(OCC(=O)OCC(=O)N2CC(=O)Nc3ccccc32)c1	inconclusive: 18.5 µM [inhibitor, single point]
CCCCN=C1NN=C(c2ccc(C)c(C)c2)CS1	inconclusive: 18.5 µM [inhibitor, single point]
CC(C)(C)NC(=O)CN(C(=O)CS(=O)CC(=O)Nc1ccc(F)cc1)c1ccc2c(c1)OCCO2 (stereo not drawn)	inactive
CC(C)CN(C(=O)C(c1ccccc1)c1ccccc1)c1c(N)n(CC(C)C)c(=O)[nH]c1=O	inconclusive: 5.22 µM [inhibitor, single point]
Cc1ccc(C(=O)N2CCN(c3ccccc3O)CC2)cc1S(=O)(=O)N1CCCCC1	active: 13.1 µM
COc1cccc(NC(=O)CN2CCN(CC(=O)Nc3ccc(F)cc3)CC2)c1	inactive

SMILES	Potency
COc1ccc(N2CCN(C(=O)c3ccccc3NC(=O)C3=C(C)OCCS3)CC2)cc1	inactive
COc1cc2nc(C3CCC3)nc(N3CCN(c4ccccc4OC)CC3)c2cc1OC	active: 13.1 µM
Cc1ccsc1C(=O)OCC(=O)N1CC(=O)Nc2ccccc21	inconclusive: 2.94 µM [inhibitor, partial curve]
CCSc1nnc(-c2cccc(S(=O)(=O)N(CC)CC)c2)n1Cc1ccccc1	active: 14.7 µM
COc1ccc(N2CC(=O)N(c3ccccc3)C2=S)cc1	inactive
CCC(O)(CC)C(=O)NN(C(=O)Nc1csc2c1CCCC2)c1ccccc1	active: 1.65 µM
Cc1cc(C)c(NC(=O)CSCc2c(C)noc2C)c(Cl)c1	inactive
CCCCN(CCCC)S(=O)(=O)c1ccc(NC(=O)c2ccc([N+](=O)[O-])cc2Cl)cc1	inconclusive: 18.5 µM [inhibitor, single point]
Cc1ccc(SCCC(=O)Nc2ccccc2C(=O)NC2CCCCC2)cc1	inconclusive: 13.1 µM [inhibitor, single point]
Cc1cc[n+](Cc2ccc([N+](=O)[O-])cc2)cc1	inconclusive: 18.5 µM [inhibitor, single point]
CCCC(=O)N1CCN(c2ccc(NC(=O)c3cc4ccccc4o3)cc2)CC1	inconclusive: 8.28 µM [inhibitor, partial curve, poor fit]
O=C(CN1CCN(c2ccccc2)CC1)N1CCc2[nH]c3ccccc3c2C1	inconclusive: 4.65 µM [inhibitor, partial curve, poor fit]
OCCCCNCc1ccc(OCc2ccc(Cl)cc2Cl)cc1	active: 13.1 µM
COc1ccccc1C(=O)OCC(=O)Nc1cccc(S(=O)(=O)N2CCCC2)c1	inconclusive: 18.5 µM [inhibitor, single point]
O=C(CSc1nnc(-c2ccc(S(=O)(=O)N3CCOCC3)cc2)o1)c1ccccc1F	inconclusive: 0.0522 µM [inhibitor, full curve, poor fit]
OC(COc1ccc(CN2CCCCO2)cc1)CN1CCCCC1 (stereo not drawn)	inconclusive: 10.4 µM [inhibitor, single point]
COc1cccc(-c2ncc3ccccc3c2COC(=O)CCC(=O)O)c1	inactive
COc1ccccc1CN(Cc1cc2cc3c(cc2[nH]c1=O)OCCO3)Cc1nnnn1Cc1ccco1	inconclusive: 2.08 µM [inhibitor, partial curve, poor fit]
CC(C)c1ccc(/C=C2\SC(=O)N(CC(=O)NC3CCS(=O)(=O)C3)C2=O)cc1 (stereo not drawn)	inactive
CC(C)(C)c1cc(C(=O)NNC(=O)Nc2cccc(Cl)c2)n(Cc2ccccc2)n1	inconclusive: 2.62 µM [inhibitor, full curve, poor fit]
CCCCCC(=O)OC(CN1CCCCC1)CN1CCCC1=O (stereo not drawn)	inactive
O=C(CSc1nnc(CNc2ccccc2)o1)N1CCCc2ccccc21	inconclusive: 20.8 µM [inhibitor, partial curve, poor fit]
Cc1ccc(CS(=O)(=O)Cc2ccc(C(=O)NCCCN3CC(C)CC(C)C3)o2)cc1 (stereo not drawn)	inconclusive: 7.38 µM [inhibitor, partial curve, poor fit]

SMILES	Potency
COCCn1c(SCC(=O)Nc2cc(OC)ccc2OC)nc2c(c1=O)SC(C)C2 (stereo not drawn)	inconclusive: 14.7 µM [inhibitor, single point]
Cc1ccc(-c2nnc3c(C(F)(F)F)nc4ccccc4n23)cc1	inconclusive: 10.4 µM [inhibitor, single point]
CCOc1ccc(OCCSc2ccc(S(=O)(=O)N3CCN(C)CC3)cn2)cc1	inconclusive: 11.7 µM [inhibitor, single point]
Cc1ccc(S(=O)(=O)N(C)C)cc1NC(=O)CSc1nc2ncc(Cl)cc2[nH]1	inconclusive: 16.5 µM [inhibitor, single point]
CC1CCCC/C1=N\NC(=S)Nc1cccnc1 (stereo not drawn)	inactive
CC(=O)Oc1ccc2c(C)c(CC(C)O)c(=O)oc2c1 (stereo not drawn)	inconclusive: 16.5 µM [inhibitor, single point]
CS(=O)(=O)Oc1ccc2c(c1)O/C(=C\c1cccnc1)C2=O	inactive
O=C1COc2cc(ccc2[N+](=O)[O-])Oc2ccc(cc2Cl)C(=O)CCCCO1	inconclusive: 18.5 µM [inhibitor, single point]
O=c1oc2ccccc2c(O)c1Cc1cc(Cl)c2cccnc2c1O	inconclusive: 7.38 µM [inhibitor, partial curve, poor fit]
O=C(NNC(=S)NC(=O)c1ccco1)c1ccc(F)cc1	inconclusive: 18.5 µM [inhibitor, single point]
COc1ccc(C)cc1NC(=O)CSc1nc(=O)n(CCCN2CCOCC2)c2c1CCCC2	inconclusive: 11.7 µM [inhibitor, partial curve]
CCOC(CCNC(=O)CCC(=O)Nc1ccc2nc(N3CCN(C)CC3)cc(C)c2c1)OCC	inactive
CC(=O)NC(C)c1cc(F)c2cccnc2c1O (stereo not drawn)	inconclusive: 4.15 µM [inhibitor, partial curve, poor fit] and inconclusive: 18.5 µM [inhibitor, single point]
CC(C)c1ccc(O)c(NC(=S)NC(=O)c2ccc3c(c2)OCO3)c1	inconclusive: 18.5 µM [inhibitor, single point]
Cn1c(CN2CCCCC2)nc2cc([N+](=O)[O-])ccc21	inactive
CN(C)N1C(N)=C(C#N)C(c2cccc3ccccc23)C2=C1CC(c1ccccc1)CC2=O (stereo not drawn)	active: 9.28 µM
COc1ccc(Cn2c(CCC(=O)N3CCN(c4ccccn4)CC3)nc3ncccc3c2=O)cc1	active: 11.7 µM
CC(C)CC(c1nnnn1C(C)C)N1CCN(c2cccc(Cl)c2)CC1 (stereo not drawn)	inconclusive: 2.33 µM [inhibitor, partial curve, poor fit]
O=C(NCCN1CCN(Cc2ccccc2)CC1)C1c2ccccc2C(=O)N2CCc3ccccc3C12 (stereo not drawn)	inconclusive: 9.28 µM [inhibitor, single point]
Cn1c(=O)c2c(nc(CN3CCN(C(=O)c4ccco4)CC3)n2Cc2ccc(F)cc2)n(C)c1=O	inconclusive: 13.1 µM [inhibitor, partial curve, poor fit]
O=C(NNC(=S)Nc1ccc(F)cc1)c1cccc([N+](=O)[O-])c1	inactive
Nc1c(Cl)cc(-c2[nH]c3cc(C(=O)NCCO)ccc3c(=O)c2O)cc1Cl	inconclusive: 9.28 µM [inhibitor, partial curve, poor fit]
